Experimental data: article PMC5489699
These are yes or no findings as the source states them, for the method shown. Binding seen in cells or lysates may run through a third protein. Some results given as binding are weak or reduced against the parent protein; the word gives no strength. For some of these results: Tags and fused reporters may be left off the sequences shown.

Experiments:
[1] = molecular target: T1, eYFP-HECTD3 fusion protein (human) (UniProt Q5T447); experiment: co-IP; GFP-trap from HEK293 lines expressing eYFP-HECTD3, HECTD3-eYFP or eYFP; cells exposed to AUY922 for increasing times; western blots for HSP90, CRAF, CDC37
T1 sequence: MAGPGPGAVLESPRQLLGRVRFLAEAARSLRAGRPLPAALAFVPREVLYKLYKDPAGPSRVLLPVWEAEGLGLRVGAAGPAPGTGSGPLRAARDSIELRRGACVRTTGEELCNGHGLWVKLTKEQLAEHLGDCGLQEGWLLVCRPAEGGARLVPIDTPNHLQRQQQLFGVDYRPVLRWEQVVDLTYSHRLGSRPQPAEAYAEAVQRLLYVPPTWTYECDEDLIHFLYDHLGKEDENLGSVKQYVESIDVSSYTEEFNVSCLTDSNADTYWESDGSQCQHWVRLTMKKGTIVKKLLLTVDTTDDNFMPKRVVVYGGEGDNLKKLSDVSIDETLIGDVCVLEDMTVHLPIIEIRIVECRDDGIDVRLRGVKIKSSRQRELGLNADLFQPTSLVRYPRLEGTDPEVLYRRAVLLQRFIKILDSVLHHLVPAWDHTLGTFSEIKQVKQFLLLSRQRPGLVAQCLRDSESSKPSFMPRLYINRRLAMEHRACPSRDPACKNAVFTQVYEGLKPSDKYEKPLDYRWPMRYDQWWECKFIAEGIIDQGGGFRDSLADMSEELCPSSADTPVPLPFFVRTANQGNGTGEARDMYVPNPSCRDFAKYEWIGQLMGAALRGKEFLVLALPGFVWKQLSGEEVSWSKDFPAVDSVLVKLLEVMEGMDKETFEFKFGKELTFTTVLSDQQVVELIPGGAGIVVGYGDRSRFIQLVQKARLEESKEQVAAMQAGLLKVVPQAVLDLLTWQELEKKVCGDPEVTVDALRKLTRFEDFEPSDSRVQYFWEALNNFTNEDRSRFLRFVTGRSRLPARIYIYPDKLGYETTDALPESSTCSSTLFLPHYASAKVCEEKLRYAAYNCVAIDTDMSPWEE

[2] = molecular target: T2, HECTD3-eYFP fusion protein (human) (UniProt Q5T447); experiment: as above
T2 sequence: T1 sequence

[3] = molecular target: T3, GST fusion of the isolated HECTD3 DOC domain (human) (UniProt Q5T447); experiment: co-IP; purified GST-DOC added to HEK293 lysate pretreated 120 min at 4°C with 0-3,200 nM AUY922; GST-Trap resin; western blots for endogenous CRAF and HSP90; only the target purified
T3 sequence: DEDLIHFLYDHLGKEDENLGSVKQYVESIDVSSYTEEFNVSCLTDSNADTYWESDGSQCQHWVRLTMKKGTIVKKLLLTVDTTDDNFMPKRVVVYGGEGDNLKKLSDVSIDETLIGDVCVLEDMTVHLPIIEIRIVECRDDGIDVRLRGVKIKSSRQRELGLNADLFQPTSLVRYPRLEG

[4] = molecular target: eYFP-CRAF fusion protein (full-length human CRAF with an N-terminal enhanced yellow fluorescent protein) (human) (UniProt P04049); experiment: co-IP; 60 μg purified His-HECTD3, GST-DOC or GST-HECT added to lysate of HEK293 cells expressing eYFP or eYFP-CRAF (25 mM HEPES pH 7.8, 0.5 mM EDTA, 150 mM NaCl, 10% glycerol, 0.5% Triton), 2 hr at 4°C; GFP-Trap resin; western blot with α-His or α-GST; only the binder purified
[5] = molecular target: eYFP-CRAF fusion protein (full-length human CRAF with an N-terminal enhanced yellow fluorescent protein) (human) (UniProt P04049); experiment: co-IP; eYFP-CRAF immunoprecipitated from HEK293 cells stably expressing it (with or without AUY922 treatment); western blot for endogenous HECTD3
[6] = molecular target: endogenous CRAF (human (endogenous in HEK293)) (UniProt P04049); experiment: proximity ligation; Duolink In Situ Red kit on fixed, permeabilised HEK293 cells (eYFP control in cells expressing eYFP); untreated or treated with AUY922 for 18 hr; foci per cell counted

endogenous CRAF (from UniProt P04049 1-648)
binding [1]: binds
binding [2]: binds
binding [3]: binds

B1: His6-tagged full-length HECTD3 (enzyme, UniProt Q5T447 1-861)
chain: T1 sequence
binding [4]: binds

B2: GST fusion of the isolated HECTD3 DOC domain (domain or fragment, UniProt Q5T447 219-398)
chain: T3 sequence
binding [4]: binds

B3: HECTD3, full-length 97-kDa form, endogenous (protein, UniProt Q5T447 1-861)
chain: T1 sequence
binding [5]: binds
binding [6]: binds

B4: CDC37, kinase-specific co-chaperone, endogenous (protein, UniProt Q16543 1-378)
chain: MVDYSVWDHIEVSDDEDETHPNIDTASLFRWRHQARVERMEQFQKEKEELDRGCRECKRKVAECQRKLKELEVAEGGKAELERLQAEAQQLRKEERSWEQKLEEMRKKEKSMPWNVDTLSKDGFSKSMVNTKPEKTEEDSEEVREQKHKTFVEKYEKQIKHFGMLRRWDDSQKYLSDNVHLVCEETANYLVIWCIDLEVEEKCALMEQVAHQTIVMQFILELAKSLKVDPRACFRQFFTKIKTADRQYMEGFNDELEAFKERVRGRAKLRIEKAMKEYEEEERKKRLGPGGLDPVEVYESLPEELQKCFDVKDVQMLQDAISKMDPTDAKYHMQRCIDSGLWVPNSKASEAKEGEEAGPGDPLLEAVPKTGDEKDVSV
binding [1]: binds
binding [2]: binds

B5: GST fusion of the isolated HECTD3 HECT domain (domain or fragment, UniProt Q5T447 512-861)
chain: YEKPLDYRWPMRYDQWWECKFIAEGIIDQGGGFRDSLADMSEELCPSSADTPVPLPFFVRTANQGNGTGEARDMYVPNPSCRDFAKYEWIGQLMGAALRGKEFLVLALPGFVWKQLSGEEVSWSKDFPAVDSVLVKLLEVMEGMDKETFEFKFGKELTFTTVLSDQQVVELIPGGAGIVVGYGDRSRFIQLVQKARLEESKEQVAAMQAGLLKVVPQAVLDLLTWQELEKKVCGDPEVTVDALRKLTRFEDFEPSDSRVQYFWEALNNFTNEDRSRFLRFVTGRSRLPARIYIYPDKLGYETTDALPESSTCSSTLFLPHYASAKVCEEKLRYAAYNCVAIDTDMSPWEE
binding [4]: no binding (tested: 60 μg added to 300–500 μL lysate)
